Data taken from PubChem BioAssay AID1347165 (National Center for Advancing Translational Sciences (NCATS), 2019).
Hit rate of the full screen: of about 220,000 compounds, about 5,700 (2.6%) were called active. Inconclusive results, whose numbers are uncertain, are shown with a selection of clear calls. The call rests on the fitted dose curve; in most records, active means well fitted inhibition curve with a large enough effect; inconclusive means small, poorly fitted or top-dose-only effect; inactive means no such curve, though single readings can be large or run the other way. Potencies of inconclusive entries are doubtful fits and often do not repeat.

Biological target: Lysine-specific demethylase 5B (Homo sapiens) (UniProt Q9UGL1)
Test: Primary screen for KDM5B Histone Demethylases FDH-coupled qHTS; further: nearly all actives have a fitted effect of over 70% in size; on activity change, negative = inhibition: 0% is about no effect
Conditions: FDH-coupled NADH fluorescence (FDH is formaldehyde dehydrogenase); activity change, negative = inhibition: at 57.7 µM (top of the series) unless noted
How it was run: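 Inhibition is measured as reduced NADH fluorescence generation from FDH coupling to formaldehyde release. Truncated KDM5BΔAP at 200 nM final acts on H3K4me3 peptide (12.5 µM in substrate mix) in pH 7.5 HEPES buffer with Tween-20, 30 min, room temperature.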
Potency means the concentration at half of the fitted maximal effect; tags describe the fitted curve by direction and shape.

Chain of UniProt Q9UGL1 (Q9UGL1 whole entry, looked up): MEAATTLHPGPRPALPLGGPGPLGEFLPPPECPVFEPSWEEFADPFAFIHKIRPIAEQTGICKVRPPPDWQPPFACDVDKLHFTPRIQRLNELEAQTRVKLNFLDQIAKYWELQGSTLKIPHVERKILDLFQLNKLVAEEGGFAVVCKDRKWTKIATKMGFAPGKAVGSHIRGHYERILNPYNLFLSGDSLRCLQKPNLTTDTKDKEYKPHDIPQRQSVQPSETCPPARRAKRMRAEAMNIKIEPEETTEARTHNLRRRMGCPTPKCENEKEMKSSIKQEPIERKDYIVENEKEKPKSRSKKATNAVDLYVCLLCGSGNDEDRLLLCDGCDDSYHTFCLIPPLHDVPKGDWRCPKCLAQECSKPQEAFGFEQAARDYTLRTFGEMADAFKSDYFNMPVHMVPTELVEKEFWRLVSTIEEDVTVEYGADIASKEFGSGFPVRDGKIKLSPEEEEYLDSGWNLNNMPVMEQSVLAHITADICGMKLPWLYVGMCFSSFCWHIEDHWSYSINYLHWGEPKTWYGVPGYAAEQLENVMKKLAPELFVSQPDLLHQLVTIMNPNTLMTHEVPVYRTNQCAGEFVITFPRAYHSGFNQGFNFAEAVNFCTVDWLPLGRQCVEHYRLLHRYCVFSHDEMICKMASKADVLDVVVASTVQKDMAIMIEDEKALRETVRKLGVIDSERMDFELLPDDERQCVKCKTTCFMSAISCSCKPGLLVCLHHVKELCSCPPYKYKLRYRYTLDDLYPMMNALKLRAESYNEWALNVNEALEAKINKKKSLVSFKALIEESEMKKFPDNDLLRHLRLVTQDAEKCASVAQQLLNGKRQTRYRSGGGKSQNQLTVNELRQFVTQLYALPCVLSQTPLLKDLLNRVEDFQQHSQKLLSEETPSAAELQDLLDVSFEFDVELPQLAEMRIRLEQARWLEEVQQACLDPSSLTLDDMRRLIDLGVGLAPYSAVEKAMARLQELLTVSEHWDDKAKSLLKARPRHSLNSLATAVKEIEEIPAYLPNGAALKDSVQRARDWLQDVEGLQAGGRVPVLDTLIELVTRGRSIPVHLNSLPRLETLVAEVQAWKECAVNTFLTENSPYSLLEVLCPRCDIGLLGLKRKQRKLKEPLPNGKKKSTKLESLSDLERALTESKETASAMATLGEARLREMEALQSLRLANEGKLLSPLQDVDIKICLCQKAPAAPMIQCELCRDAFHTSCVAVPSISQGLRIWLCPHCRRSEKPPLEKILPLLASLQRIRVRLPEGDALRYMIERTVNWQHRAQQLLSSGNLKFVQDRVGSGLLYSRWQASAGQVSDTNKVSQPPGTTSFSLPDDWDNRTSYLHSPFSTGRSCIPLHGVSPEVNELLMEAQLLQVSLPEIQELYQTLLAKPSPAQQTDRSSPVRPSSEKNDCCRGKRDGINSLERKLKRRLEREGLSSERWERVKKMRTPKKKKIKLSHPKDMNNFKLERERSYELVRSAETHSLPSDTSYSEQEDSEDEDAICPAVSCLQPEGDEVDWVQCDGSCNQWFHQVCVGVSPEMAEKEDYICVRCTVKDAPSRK

Structure (SMILES) | Potency | activity change, negative = inhibition
OC[C@H]1CCN(c2ccnc3c(C(F)(F)F)cccc23)C[C@H]1O | inconclusive: 28.2 µM [inhibitor, partial curve, poor fit] | –
COc1ccccc1CN1CCc2nc(N3CCN(C)CC3)[nH]c(=O)c2CC1 | – | inactive: 27.2%
COc1ccc(CNC(=O)c2ccc(C3Nc4ccccc4S(=O)(=O)N3)cc2)cc1OC (centres undefined) | inconclusive: 39.8 µM [inhibitor, single point] | –
Cc1cn2nc(C(=O)NCc3ccc(F)cc3)cc2c(N2CCSCC2)n1 | inconclusive: 7.08 µM [inhibitor, partial curve, poor fit] | –
O=S1(=O)C=C(Sc2nn(-c3ccccc3)c(=S)s2)c2ccccc21 | inconclusive: 15.8 µM [inhibitor, partial curve, poor fit] | –
CC(NC(=O)c1ccc2c(c1)NC(=O)CCS2)c1ccncc1 (centres undefined) | – | inactive: -26.4%
CNC(=O)[C@@H]1C[C@H](Oc2cccnc2)CN1C(=O)CN1CCCCCC1 | inconclusive: 20 µM [inhibitor, partial curve, poor fit] | –
COc1cc(CN2CCN(c3ncc(F)cn3)CC2)cc(Cl)c1OC | inconclusive: 31.6 µM [inhibitor, single point] | –
Cc1ccc2c(C(=O)N3CCOCC3)cc(NC(=O)C3CCC3)cc2n1 | active: 22.4 µM | –
Cc1cc(C)c(OCCOCCN2CCCC2)c(C)c1 | inconclusive: 20 µM [inhibitor, partial curve, poor fit] | –
CCCC(=O)Nc1cc(-c2nc3cc(C)ccc3o2)ccc1C | inconclusive: 25.1 µM [inhibitor, single point] | –
CN1CC(=O)N(C2CCCNC2)Cc2c(NCc3ccc4c(c3)OCO4)ncnc21 (centres undefined) | inconclusive: 89.1 µM [inhibitor, partial curve, poor fit] | –
Cc1cc(Cl)ccc1OCC(=O)Nc1c(C(=O)c2ccccc2)oc2ccccc12 | – | inconclusive: -32.1% [inhibitor]
CCn1c(SCC(=O)N(C)Cc2ccc(-c3ccc(Br)cc3)o2)nnc1C1CC1 | inconclusive: 20 µM [inhibitor, partial curve, poor fit] | –
Cc1oc(C(O)c2ccccc2F)nc1C(=O)Nc1ccc(C(=O)Nc2ccccc2)cc1 (centres undefined) | inconclusive: 31.6 µM [inhibitor, single point] | –
COc1ccc(Nc2cc3c(nc2-c2ccccc2)nc(C(=O)NCCN(C)C)n3C)cn1 | active: 31.6 µM | –
Cc1cccc(N2CCN(C(=O)COCc3cc(-c4ccc(F)cc4)on3)CC2)c1C | inconclusive: 39.8 µM [inhibitor, single point] | –
COC(=O)c1ccc(C#Cc2ccccc2)o1 | inconclusive: 25.1 µM [inhibitor, partial curve, poor fit] | –
CC1CCCC(C)N1/N=C/c1ccc(O)c(O)c1 (centres undefined) | inconclusive: 28.2 µM [inhibitor, partial curve, poor fit] | –
CCc1cccc(C)c1NS(=O)(=O)c1ccc(-c2coc(C)n2)cc1 | – | inactive: -2.7%
CNc1nc2c(c(C(=O)N3CCCC3)n1)CN(C(=O)C1CC(C(C)C)=NO1)CC2 (centres undefined) | inconclusive: 25.1 µM [inhibitor, single point] | –
Cc1ccc(C)c(OCc2ccc(-c3nc(C#N)c(NC(C)C)o3)o2)c1 | inconclusive: 20 µM [inhibitor, partial curve, poor fit] | –

Structure (SMILES) | Potency | activity change, negative = inhibition
CCn1ccc2c(OCC(=O)NCc3ccc(C)cc3)cccc2c1=O | inconclusive: 44.7 µM [inhibitor, single point] | –
CN1Cc2cccn2CC1CNC(=O)c1nn(C)c2ccccc12 (centres undefined) | active: 15.8 µM | –
Cn1c(=O)c(C2=NN(C(=O)c3ccco3)C(c3ccco3)C2)c(-c2ccccc2)c2cc(Cl)ccc21 (centres undefined) | inconclusive: 28.2 µM [inhibitor, partial curve, poor fit] | –
COc1ccc(-c2cc(C(C)=O)c(C)n2CCC(=O)Nc2ccc(C(F)(F)F)cc2)cc1 | inconclusive: 5.01 µM [inhibitor, partial curve, poor fit] | –
COc1ccc(O)c(CN2CCC(CO)(Cc3ccccc3Cl)CC2)c1 | inconclusive: 17.8 µM [inhibitor, partial curve, poor fit] | –
CS(=O)(=O)c1ccc(-c2cnc([C@@H]3COCCN3Cc3ccccc3O)[nH]2)cc1 | inconclusive: 39.8 µM [inhibitor, partial curve, poor fit] | –
Cc1nc(CN2CCN(C(=O)NCc3ccco3)CC2)cs1 | – | inactive: 9.2%
COc1ccc(C2Cn3nnc(-c4noc(COc5ccccc5)n4)c3CO2)cc1 (centres undefined) | – | inactive: 2.52%
Cc1ccc(C(C)C)c(OCc2ccc(C(=O)N/N=C/c3ccc(C(=O)O)cc3)cc2)c1 | inconclusive: 28.2 µM [inhibitor, single point] | –
CCc1ccc(CNC(=O)Cn2c(-c3cccs3)cc3cc(F)ccc32)cc1 | inconclusive: 28.2 µM [inhibitor, partial curve, poor fit] | –
COc1ccc(-n2c(=O)c3c(c4cc(OC)ccc4n3C)n(Cc3ccc(F)cc3Cl)c2=O)cc1 | inconclusive: 15.8 µM [inhibitor, partial curve, poor fit] | –
CCn1ccc(C(=O)N2CCCCCCNC(=O)[C@@H]3CCCC[C@@H]32)n1 | inconclusive: 14.1 µM [inhibitor, partial curve, poor fit] | –
CCc1nonc1NC(=O)COc1ccc(C)c(C)c1 | – | inactive: 7.03%
COc1ccc(-c2ccc3c(n2)CN(CCOc2ccccc2)C(=O)CO3)cc1 | active: 12.6 µM | –
COCCN1Cc2ccc(NCC(C)C)nc2C(C)(C(=O)Nc2ccncc2)C1 (centres undefined) | active: 28.2 µM | –
COc1ccc(N2CC3(C2)CN(c2ccccc2)C(=O)O3)cc1OC | – | inactive: -19.1% [at 86.2 µM]
O=C(Nc1cnc(N2CCC(N3CCCCC3)CC2)c(C(=O)O)c1)c1ccc(Br)cc1 | inconclusive: 22.4 µM [inhibitor, single point] | –
Cc1ccc(C(=O)N[C@H]2CO[C@H]3[C@@H]2OC[C@@H]3Nc2nccc(-c3ccc(-c4ccccc4)cc3)n2)cc1 | inconclusive: 39.8 µM [inhibitor, single point] | –
COc1ccc2c(c1)OCC(CNC(=O)c1ccc(C(C)C)n(C)c1=O)C2 (centres undefined) | inconclusive: 31.6 µM [inhibitor, partial curve, poor fit] | –
COc1ccc(Cl)cc1C(=O)NC1CCN(c2cc(-c3cccs3)[nH]n2)CC1 | – | inactive: -31.3%
COCCn1ccc2c(OCC(=O)Nc3ccccc3F)cccc2c1=O | inconclusive: 28.2 µM [inhibitor, partial curve, poor fit] | –
Cc1ccc(-c2cc(C(=O)N/N=C/c3ccc(Cl)cc3)n[nH]2)o1 | inconclusive: 20 µM [inhibitor, partial curve, poor fit] | –

Structure (SMILES) | Potency | activity change, negative = inhibition
Cc1ccc(-c2nn(CC(=O)NC3CCCC3)c3c2cnc2ccccc23)cc1 | inconclusive: 25.1 µM [inhibitor, partial curve, poor fit] | –
C=CCNC(=O)N[C@H]1[C@H](O)[C@@H](N2CCN(c3ccccc3OC)CC2)[C@@H]2OC[C@H]1O2 | inconclusive: 28.2 µM [inhibitor, partial curve, poor fit] | –
Fc1ccc(-c2nnc3ccc(NCc4cnccn4)nn23)nc1 | – | inactive: -11.1% [at 86.2 µM]
CN(Cc1ccc(C(F)(F)F)cc1)Cc1ccccc1C(F)(F)F | – | inactive: 10.1% [at 86.2 µM]
CC(C)NC(=O)c1nc(-c2cccc(C(F)(F)F)c2)c2cnccn12 | active: 31.6 µM | –
O=C1NC2(CCCCC2)NN1c1ccc(Br)cc1 | – | inactive: 1.81%
O=C(/C=C/c1ccco1)N(Cc1ccc(Cl)cc1)C1CCS(=O)(=O)C1 (centres undefined) | inconclusive: 28.2 µM [inhibitor, single point] | –
COc1cc(/C=C/c2nc(C#N)c(NCCc3ccccc3)o2)cc(OC)c1OC | inconclusive: 31.6 µM [inhibitor, partial curve, poor fit] | –
CS(=O)(=O)CC[C@H](NC(=O)C1=C[C@@H](NC(=O)CCN)[C@@H](O)[C@H](O)C1)C(N)=O | active: 39.8 µM | –
Cc1nc(-c2ccccc2)n(CC(=O)Nc2cc(C(F)(F)F)ccc2Cl)c(=O)c1CCO | – | inactive: -14.1%
Cc1oc2cc(OCC(=O)NC3CCS(=O)(=O)C3)ccc2c(=O)c1Oc1ccccc1 (centres undefined) | inconclusive: 28.2 µM [inhibitor, partial curve, poor fit] | –
CN1CCC(C(=O)N[C@@H]2CN(c3ncccn3)C[C@H]2CO)CC1 | inconclusive: 20 µM [inhibitor, partial curve, poor fit] | –
CN(CC(=O)Nc1cc(C(F)(F)F)cc(C(F)(F)F)c1)C1CCCCC1 | – | inactive: 9.81%
Oc1ccccc1CN1CCOC[C@H]1c1ncc(-c2ccc(C(F)(F)F)cc2)[nH]1 | inconclusive: 35.5 µM [inhibitor, single point] | –
O=C(O)CCn1cc(C(C(=O)O)N2CCN(Cc3cccnc3)CC2)c2ccc(F)cc21 (centres undefined) | – | inactive: -0.425%
Cc1ccc(CNC(=O)c2cc(NC(=O)C(C)C)cc3nc(C)ccc23)cc1 | inconclusive: 25.1 µM [inhibitor, partial curve, poor fit] | –
Cc1cn2nc(C(=O)N3CCC(NC(=O)C4CCC4)CC3)cc2c(=O)[nH]1 | inconclusive: 39.8 µM [inhibitor, partial curve, poor fit] | –
Cc1ccccc1CN1c2ccccc2-c2nc(SCC(N)=O)ncc2S1(=O)=O | inconclusive: 1.58 µM [inhibitor, full curve, poor fit] | –
C=CCN(C(=O)CC1COc2ccc(C(=O)N(C)C)cc2N1C)C(C)C (centres undefined) | – | inactive: -6.93%
O=c1c2nc(Nc3ccc(C(F)(F)F)cc3)ccc2ncn1Cc1ccccn1 | inconclusive: 35.5 µM [inhibitor, partial curve, poor fit] | –
